Among the data in patent US12552787B2, “Quinazoline compound” (MEDSHINE DISCOVERY INC., priority 2020, dated 2026) are IC50 values, retold here.

Each structure is given as a SMILES string.

The subject of the experiment is pERK in DLD-1 cells (KRAS G13D mutant). In words: cells. The settings on record: Homo sapiens, DLD-1, 1.5 h, read-out: IC50, inhibitory activity on pERK in DLD-1 cells. The method, then: The degree of ERK protein phosphorylation in KRAS G13D mutant DLD-1 cells was detected by homogeneous time-resolved fluorescence (HTRF), and the IC50 and IC90 values of the compounds were used as indicators to evaluate the inhibitory activity of the compounds on the degree of ERK phosphorylation in the RAS signaling pathway.
1. Experimental Steps and Methods:
• 1) DLD-1 (50,000 cells/well) cells were planted into a 96-well plate with 90 μL of RPMI-1640 medium (10% fetal bovine serum) per well, and cultured overnight at 37° C. in a 5% CO2 incubator. • 2) 10 μL of the 10× compound working solution was taken and added to the cell culture plate as shown in Table 2. 10 μL of DMSO-cell culture medium mixture was added to vehicle control and positive control. The final concentration of DMSO was 0.25%. The 96-well cell plate was returned to the incubator and cultured for 1.5 hours.
• 3) The cell supernatant was removed, 50 μL of 1× lysate was immediately added, and incubated at room temperature for 30 minutes with shaking. • 4) 16 μL of cell lysate was transferred from the 96-well plate to the HTRF 384-well assay plate by pipetting and mixing with a pipette. • 5) 4 μL of the premixed antibody solution was added, the plate was sealed, and incubated at 4° C. The fluorescence emission intensity at 665 nm and 620 nm was detected with an HTRF plate reader. 2. Data Analysis: • 1) The fluorescence wavelength of the Envision instrument was set at 665 nm and 620 nm for fluorescence quantification; • 2) acceptor and donor emission signals per well were calculated: Ratio=Signal 665 nM/Signal 620 nM; • 3) after removing the background value, the raw data was compared with the DMSO treatment group, and the relative pERK level was calculated; • 4) IC50 was calculated based on Log[inhibitor] vs Response-variance slope using GraphPad 8.0 software.
As usually defined, the IC50 is the point on the concentration scale where inhibition reaches its midpoint. Turning to `C=C[C@@H](Nc1nc(C)nc2cc(=O)n(C3(C(F)F)CC3)cc12)c1cccc(C(F)F)c1F` [Compound 8], the half-inhibitory concentration (IC50) is 37 nM.

Consider `C=C[C@@H](Nc1nc(C)nc2cc(=O)n(C3(C)CCN(C(C)=O)CC3)cc12)c1cccc(C(F)F)c1F` [Compound 9], for which the IC50 turned out to be 36 nM. The result for `C=C[C@@H](Nc1nc(C)nc2cc(=O)n(C3(C)CCN(C(=O)OC)CC3)cc12)c1cccc(C(F)F)c1F` [Compound 10] reads 87 nM; that for `C=C[C@@H](Nc1nc(C)nc2cc(=O)n(C3(C)CCN(C(C)=O)C3)cc12)c1cccc(C(F)F)c1F` (some centres unmarked) [Compound 13], 26 nM; that for `C=C[C@@H](Nc1nc(C)nc2cc(=O)n(C3(C(F)F)CCN(C(C)=O)C3)cc12)c1cccc(C(F)F)c1F` (some centres unmarked) [Compound 15], 25 nM.
